This is one part of the list. The main result of the screen is listed elsewhere. These columns were measured beside it and carry no call. Potencies come from curve fits of mixed quality, noted in brackets.
Assay: qHTS drug screen for cell cycle checkpoint inhibitors in PARPi-resistant BRCA-mutant ovarian cancer cell lines. (AID 1963452)
Conditions: PEO1/OlaR viability, CellTiter-Glo luminescence, 96 h; measured here: PEO4 viability
Method in brief: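 PEO1, PEO4 and PEO1/OlaR ovarian cancer cells, 600 per well, exposed 96 h at 37C to a dilution series. Viability read by CellTiter-Glo luminescence, normalized to DMSO and empty wells; activity summarized as Z-AUC.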
Tags tell the direction and shape of the fitted curve.

| SMILES | AC50 |
| --- | --- |
| Cn1c(=O)c2c(ncn2CC2OCCO2)n(C)c1=O | 0.0389 µM [rising, full curve] |
| CCc1ccc2nc(Nc3cc(Cc4ccccc4)nc(NC4CCC(O)CC4)n3)sc2c1 (stereo not given) | 17.4 µM [falling, single point] |
| CC[C@H](NC(=O)[C@H](C)NC)C(=O)N1C[C@@H](O)C[C@H]1Cc1c(-c2[nH]c3cc(F)ccc3c2C[C@@H]2C[C@H](O)CN2C(=O)[C@H](CC)NC(=O)[C@H](C)NC)[nH]c2cc(F)ccc12 | 6.16 µM [falling, full curve, poor fit] |
| C[C@@H](O)[C@@H](C)Oc1nc(Nc2ccc(S(=N)(=O)C3CC3)cc2)ncc1C(F)(F)F (stereo not given in full) | 19.5 µM [rising, single point] |
| Nc1nccc(-c2c(-c3ccc(F)cc3)ncn2C2CCN(Cc3ccon3)CC2)n1 | 12.3 µM [falling, partial curve] |
